About 620 (0.23%) of roughly 270,000 compounds were called active. This list was built around the results that the source calls inconclusive (neither active nor inactive); the mix of calls is not that of the screen. The call rests on the fitted dose curve; in most records, active means well fitted inhibition curve with a large enough effect in the polarisation, with a control signal flat (not every such curve was filed as active); inconclusive means small, poorly fitted or top-dose-only effect, or effect the other way, or a change in a side signal; inactive means no such curve, though single readings can be large or run the other way; the % refers to the polarisation. Potencies beside an inconclusive call are fits to weak or partial responses and may not hold up. A note “side channel” means that the fit belongs to a control or component signal, not to the main read-out.
What follows are compounds tested against Menin (Homo sapiens) (UniProt O00255) (assay: qHTS Assay for Inhibitors Targeting the Menin-MLL Interaction in MLL Related Leukemias: Competition With Texas Red Labeled MLL-derived Mutant Peptide). Conditions: fluorescence polarization; series mostly up to 61.6 µM.
Potency means the concentration at half of the fitted maximal effect; tags describe the fitted curve by direction and shape or compound fluorescence and quenching.

Chain of UniProt O00255 (O00255 whole entry, looked up): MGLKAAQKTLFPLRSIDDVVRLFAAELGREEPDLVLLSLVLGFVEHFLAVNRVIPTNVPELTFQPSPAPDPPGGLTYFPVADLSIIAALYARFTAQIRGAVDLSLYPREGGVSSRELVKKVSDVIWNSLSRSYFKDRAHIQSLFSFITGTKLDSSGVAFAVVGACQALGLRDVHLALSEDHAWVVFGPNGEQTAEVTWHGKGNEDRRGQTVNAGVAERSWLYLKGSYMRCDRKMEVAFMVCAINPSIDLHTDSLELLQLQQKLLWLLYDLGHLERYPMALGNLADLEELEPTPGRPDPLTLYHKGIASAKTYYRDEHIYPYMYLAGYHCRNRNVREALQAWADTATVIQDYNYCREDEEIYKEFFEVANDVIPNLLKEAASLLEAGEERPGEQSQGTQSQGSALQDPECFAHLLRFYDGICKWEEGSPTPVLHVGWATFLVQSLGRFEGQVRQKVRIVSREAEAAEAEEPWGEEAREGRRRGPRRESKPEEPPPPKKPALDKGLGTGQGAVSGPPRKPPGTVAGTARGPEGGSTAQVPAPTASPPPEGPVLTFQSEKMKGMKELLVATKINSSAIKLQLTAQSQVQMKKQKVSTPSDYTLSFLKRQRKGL

Row | SMILES | Potency
1 | Cc1ccc(C(O)P(=O)(OC2CCCCC2)OC2CCCCC2)cc1 (configuration not stated) | inconclusive: 14.1 µM [fluorescent, side channel, partial curve]
2 | CN1CCN(c2ccc(S(C)(=O)=O)cc2[N+](=O)[O-])CC1 | inactive
3 | CN1CC(C(=O)c2ccc(Cl)cc2)C(c2ccc(Cl)cc2Cl)C1 (configuration not stated) | inconclusive: 8.91 µM [fluorescent, side channel, partial curve]
4 | Cc1ncc(CN2CCCC(C(=O)c3ccc(C(C)(C)C)cc3)C2)s1 (configuration not stated) | inconclusive: 10 µM [fluorescent, side channel, partial curve]
5 | CC[C@@]1(O)CC(O)c2c(cc3c(c2O)C(=O)c2c(O)ccc(O)c2C3=O)C1C(=O)OC (some centres not stated) | inconclusive: 7.94 µM [fluorescent, side channel, full curve]
6 | Cc1ccc(/C=C2\C(=O)NC(=S)N(c3ccccc3F)C2=O)s1 | inconclusive: 7.08 µM [fluorescent, side channel, full curve]
7 | COC(=O)[C@@H]1C[C@@]1(C)[C@@H](NP(=O)(c1ccccc1)c1ccccc1)c1ccccc1 | inconclusive: 8.91 µM [fluorescent, side channel, partial curve]
8 | N#CC(C#N)=NNc1cccc(Cl)c1 | inconclusive: 3.98 µM [quencher, side channel, full curve, poor fit]
9 | CC(C)OP(=O)(OC(C)C)C(NCc1ccccc1)c1ccccc1 (configuration not stated) | inconclusive: 14.1 µM [fluorescent, side channel, partial curve]
10 | CC(C)OP(=O)(c1ccc(N(C)C)cc1)C(O)c1ccc(Br)cc1 (configuration not stated) | inconclusive: 12.6 µM [fluorescent, side channel, partial curve]
11 | O=C1NC(=S)N(Cc2ccco2)C(=O)/C1=C\c1cccs1 | inconclusive: 28.2 µM [fluorescent, side channel, single point]
12 | C[C@]12C=CC(=O)C=C1CCC1C2=CC[C@]2(C)[C@@H](C(=O)CN3CCN(c4cc(N5CCCC5)nc(N5CCCC5)n4)CC3)CC[C@@H]12 (some centres not stated) | inconclusive: 5.01 µM [fluorescent, side channel, full curve]
13 | COc1ccc2c(c1OC)CN1CCc3cc4c(cc3C1C2)OCO4 (configuration not stated) | inconclusive: 14.1 µM [inhibitor, partial curve, poor fit]
14 | C[CH2][Hg][S]c1ccccc1C(=O)O | inactive
15 | CN1/C(=C\C=C\C2=[N+](C)c3ccc4ccccc4c3C2(C)C)C(C)(C)c2ccccc21 | inconclusive: 0.316 µM [fluorescent, full curve, poor fit]
16 | COc1ccccc1OCC#CCN1CCCCCC1 | inconclusive: 31.6 µM [inhibitor, single point]
17 | Cc1cc(C)cc(NC(=S)NC2CC3CCC(C2)N3Cc2ccco2)c1 (configuration not stated) | inconclusive: 35.5 µM [inhibitor, single point]
18 | COc1ccc2c(c1)[C@@]13CCCC[C@H]1[C@@H](C2)NCC3 | inconclusive: 17.8 µM [fluorescent, side channel, partial curve]
19 | CCC1(CCCC(=O)c2ccc(F)cc2)C(=O)NC(=S)NC1=O | inactive

Row | SMILES | Potency
20 | CC[C@@H](CO)NC(=O)[C@@H]1C=C2c3cccc4c3c(cn4C)C[C@H]2N(C)C1 | inconclusive: 35.5 µM [inhibitor, single point]
21 | O=C(O)c1ccc2c(c1)C1C(Cl)C(Sc3ccccc3[N+](=O)[O-])CC1C(c1cccc([N+](=O)[O-])c1)N2 (configuration not stated) | inconclusive: 20 µM [quencher, side channel, partial curve]
22 | O=c1[nH]c(=S)[nH]c(O)c1N=Nc1ccc(OC(F)F)cc1 | inconclusive: 20 µM [quencher, side channel, partial curve]
23 | Cc1[nH]n(-c2ccccc2)c(=O)c1C(c1cccc([N+](=O)[O-])c1O)c1c(C)[nH]n(-c2ccccc2)c1=O | inconclusive: 20 µM [quencher, side channel, partial curve]
24 | CCOc1ccc(NC(=O)C2C3c4ccccc4C(c4ccccc43)C2C(=O)O)cc1 (configuration not stated) | inconclusive: 35.5 µM [quencher, side channel, partial curve]
25 | O=C(c1ccco1)c1cn(Cc2ccccc2)c2ccccc12 | inconclusive: 12.6 µM [quencher, side channel, partial curve, poor fit]
26 | Cc1cc([C@@H]2CCCN2C)on1 | inactive
27 | COc1ccc(-n2c(-c3ccccc3Br)nc3ccccc3c2=O)cc1 | inconclusive: 39.8 µM [fluorescent, side channel, single point]
28 | O=C(c1cc(F)ccc1F)C1CCCN(Cc2cccc(Cl)c2)C1 (configuration not stated) | inconclusive: 22.4 µM [fluorescent, side channel, partial curve]
29 | CC(=O)c1ccc2c(c1)C1C(Cl)C(Sc3ccccc3[N+](=O)[O-])CC1C(C(=O)O)N2 (configuration not stated) | inconclusive: 14.1 µM [quencher, side channel, partial curve]
30 | CN(C)c1ccc(-[n+]2c(-c3ccccc3)cc(-c3ccccc3)cc2-c2ccccc2)cc1 | inconclusive: 39.8 µM [inhibitor, partial curve]
31 | N#Cc1c(Cl)c(Cl)c(Cl)c(C#N)c1Cl | inconclusive: 25.1 µM [fluorescent, side channel, single point]
32 | C[N+]12CCC(CC1)C(C(O)(c1ccccc1)c1cccs1)C2 (configuration not stated) | inactive
33 | CCCC/C(=N/O)c1c(C)[nH]c2ccccc12 | inactive
34 | Cc1ccc(NP(=O)(Nc2ccc(C)cc2)Oc2ccccc2)cc1 | inconclusive: 10 µM [fluorescent, side channel, partial curve]
35 | CNCCc1c(C)n[nH]c1C | inactive
36 | CN1CCC2(CC1)C(C#N)=C(N)NC(S)=C2C#N | inconclusive: 22.4 µM [fluorescent, side channel, single point]
37 | CCCCCC[C@H]1C(=O)O[C@H](C)[C@H](NC(=O)c2cccc(NC=O)c2O)C(=O)O[C@@H](C)[C@@H]1OC(=O)CC(C)C | inconclusive: 14.1 µM [quencher, side channel, partial curve]
38 | Oc1c(Br)cc(Br)cc1Oc1ccc(Br)cc1Br | inconclusive: 28.2 µM [quencher, side channel, single point]

Row | SMILES | Potency
39 | O=C1NC(=O)[C@]2(Cc3ccccc3N3CCN(c4ccccc4)CC32)C(=O)N1c1ccccc1 (some centres not stated) | inconclusive: 39.8 µM [quencher, side channel, single point]
40 | CCC1(CC)CCNC1=O | inactive
41 | CCCCn1c(N)c(C(=O)OCC2CCCO2)c2nc3ccccc3nc21 (configuration not stated) | inconclusive: 3.16 µM [inhibitor, full curve]
42 | CCN1C(=O)C(=C/C=C/c2ccco2)C(=O)N(CC)C1=S | inconclusive: 25.1 µM [fluorescent, side channel, partial curve]
43 | Cc1ccc(N2C(=O)NC(=O)/C(=C\c3ccc([N+](=O)[O-])o3)C2=O)cc1 | inconclusive: 31.6 µM [fluorescent, side channel, single point]
44 | CCCCn1c(=O)c(C(=O)Nc2ccc(C)cn2)c(O)c2ccccc21 | inconclusive: 39.8 µM [inhibitor, single point]
45 | CN(C(=O)Oc1ccc(C(C)(C)C)cc1)c1ccccc1 | inconclusive: 10 µM [fluorescent, side channel, partial curve]
46 | CCOP(=O)(OCC)c1cccc(P(=O)(c2ccccc2)c2ccccc2)c1O | inconclusive: 1.58 µM [inhibitor, partial curve]
47 | CC(=O)Nc1ccc(OC(=O)N(C)c2ccccc2)cc1 | inconclusive: 0.708 µM [inhibitor, full curve, poor fit]
48 | C=C1C(O)(c2ccccc2)C2CC[N+]1(C)CC2 (configuration not stated) | inactive
49 | C[n+]1c(-c2ccccc2)c2cc(N)ccc2c2ccc(N)cc21 | inconclusive: 22.4 µM [fluorescent, side channel, partial curve]
50 | CCCc1cc2c(n1Cc1ccco1)C(C)C1CN(C(=O)c3ccccc3)C(C)(C(=O)OC)C21 (configuration not stated) | inconclusive: 28.2 µM [quencher, side channel, single point]
51 | CN1CCN(c2ccccc2N)CC1 | inactive
52 | O=c1c2ccccc2[se]n1-c1ccccc1 | inconclusive: 28.2 µM [quencher, side channel, single point]
53 | CC1=CC[C@@H]2[C@@H](C1)c1c(O)cc(CC#CCCCNS(C)(=O)=O)cc1OC2(C)C | inconclusive: 22.4 µM [quencher, side channel, partial curve]
54 | c1ccc2c(c1)Nc1ccccc1S2 | inconclusive: 25.1 µM [quencher, side channel, partial curve]
55 | CCC(C)C1O[C@]2(C=CC1C)CC1CC(C/C=C(\C)[C@H](OC3CC(OC)C(O[C@H]4CC(OC)[C@@H](O)C(C)O4)C(C)O3)[C@@H](C)/C=C/C=C3\COC4C(O)C(C)=C[C@H](C(=O)O1)[C@@]34O)O2 (some centres not stated) | inconclusive: 28.2 µM [fluorescent, side channel, partial curve]
56 | COc1ccc(N=C(C)c2c(O)n(C)c(=O)n(C)c2=O)c(OC)c1 | inconclusive: 39.8 µM [inhibitor, single point]
57 | COC(=O)C1=Nc2ccccc2/C1=C\c1c(O)n(-c2ccc(Br)cc2)c(=O)[nH]c1=O | inconclusive: 3.98 µM [quencher, side channel, partial curve]

Reference: PubChem BioAssay AID1768 (National Center for Advancing Translational Sciences (NCATS), 2009)
